# Measured values reported in PubChem BioAssay AID1345083 (National Center for Advancing Translational Sciences (NCATS), 2018).
# Where “and” joins values, the source holds several entries; their conditions need not be identical. Identical values can stand only once. The campaign covered roughly 94,000 compounds. About 6,200 (6.6%) were called active. This list was built around the results that the source calls inconclusive (neither active nor inactive); the mix of calls is not that of the screen. The call rests on the fitted dose curve; in most records, active means well fitted inhibition curve with a large enough effect; inconclusive means small, poorly fitted or top-dose-only effect; inactive means flat fitted curve, though single readings scatter. Potencies beside an inconclusive call are fits to weak or partial responses and may not hold up.
# Assay: Cytotoxic Profiling in HEK 293 Cell Line of Diverse Libraries Using Quantitative High-Throughput Screening; further: nearly all actives have a fitted effect of over 60% in size
# Conditions: HEK 293 viability, ATP luminescence (CellTiter-Glo), 48-72 h; activity change, negative = cytotoxicity: at 115 µM (top of the series) unless noted; series mostly up to 115 µM
# Method in brief: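 Cytotoxicity was scored by loss of ATP-coupled luminescence (CellTiter-Glo) in HEK 293 cells. Compound treatment ran 48 or 72 hr at 37 degree Celsius, 5% CO2, 95% humidity.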
# On the % scale 0 is the no-effect control and ±100 the full control effect; potency means the concentration at half of the fitted maximal effect; tags describe the fitted curve by direction and shape.
SMILES,"activity change, negative = cytotoxicity",Potency,outcome
COc1cccc(C(=O)N2CC(=O)N(Cc3c(OC)cccc3OC)CC(O)C2)c1 (stereo not given),inactive: -9.07%,,
O=C(NCCNC(=O)c1ccc(-c2cccc(C(F)(F)F)c2)cc1)NC1CCCC1,inactive: -20.4%,,
COc1ccc(-c2cn3cc(C(=O)N4CCCCC4)nc3c(=O)n2CC2CC2)cc1,,"inconclusive: 44.7 µM [inhibitor, partial curve, poor fit]",
COc1cccc(CCC(=O)N2CCCN(c3cc(-c4ccccc4)[nH]n3)CC2)c1,,"inconclusive: 50.1 µM [inhibitor, partial curve, poor fit]",
CCC(C)C(=O)N1CCC2(CC1)NCCc1c2[nH]c2ccc(OC)cc12 (stereo not given),,"inconclusive: 35.5 µM [inhibitor, partial curve, poor fit]",
COc1ccccc1Nc1ccnc(N2CCC(C(=O)N3CCN(Cc4ccccc4)CC3)CC2)n1,,"inconclusive: 50.1 µM [inhibitor, partial curve, poor fit]",
COc1ccc(CC(=O)N2CCC3(CC2)CC(N[S+](C)(=O)[O-])c2ccccc23)cc1 (stereo not given),inactive: -8.9%,,
CC(C)CN(CC1CN(C(=O)c2ccccc2Cl)CCO1)C(=O)c1cccc(F)c1 (stereo not given),,"inconclusive: 63.1 µM [inhibitor, partial curve, poor fit]",
C=CCn1cc2c3c(cccc31)[C@H](CC(C)C)N[C@H](C(=O)NC1CCC1)C2,,active: 63.1 µM,
CC(C)c1ccc(CNC(=O)c2ccc(CN3C(=O)NC4(CCOCC4)C3=O)cc2)cc1,,"inconclusive: 50.1 µM [inhibitor, partial curve, poor fit]",
COc1ccccc1-n1c(=O)c(C(=O)N2CCN(C(=O)Nc3ccccc3)CC2)nc2cccnc21,inactive: -2.14%,,
CC(=O)N1Cc2ccccc2CC2(CCCN2Cc2ccccc2)C1 (stereo not given),inactive: -23.3%,,
O=C(CN1C(=O)COc2ccc(C(=O)COc3ccc(F)cc3)cc21)Nc1ccccc1,,"inconclusive: 89.1 µM [inhibitor, single point]",
O=C1CC(c2noc(-c3ccccc3OC(F)(F)F)n2)CN1C1CCCCC1 (stereo not given),,"inconclusive: 50.1 µM [inhibitor, partial curve, poor fit]",
COc1cccc(CC(=O)N2CCCN(c3cc(-c4ccc(Br)cc4)[nH]n3)CC2)c1,,active: 44.7 µM,
CC(C)c1cc(C(=O)NCc2nnnn2-c2ccccc2)nc2ncnn12,,"inconclusive: 56.2 µM [inhibitor, partial curve, poor fit]",
COc1ccc(NC(=O)C2CN(S(=O)(=O)C3CC3)CC23CCCCC3)cc1F (stereo not given),,"inconclusive: 79.4 µM [inhibitor, partial curve, poor fit]",
COc1ccc(CCNC(=O)c2ccc3nc(C)cn3c2)cc1,,"inconclusive: 89.1 µM [inhibitor, single point]",
CC(C)c1nccn1Cc1cc(C(=O)N(C)Cc2ccccc2Cl)n[nH]1,,"inconclusive: 89.1 µM [inhibitor, single point]",
O=C(NC1CCCCC1)C1CN(C(=O)c2ccc(C(F)(F)F)cc2)CC12CCOCC2 (stereo not given),inactive: -20.2%,,
Cc1ccccc1NC(=O)Cn1c(N2CCCCC2)nc(C)c(C)c1=O,,"inconclusive: 89.1 µM [inhibitor, single point]",
Cc1ccc2nc(C)c(C)c(C(=O)NCc3nc(-c4ncccn4)no3)c2c1,,"inconclusive: 79.4 µM [inhibitor, single point]",

SMILES,"activity change, negative = cytotoxicity",Potency,outcome
Cc1ccc(CN2CCc3nc(C4CC4)nc(-c4ccc(O)cc4)c3CC2)cc1,,"inconclusive: 79.4 µM [inhibitor, partial curve, poor fit]",
CC(C)CCNC(=O)C1C(c2cccc(NC(=O)c3ccco3)c2)OC(=O)N1Cc1ccccc1 (stereo not given),,"inconclusive: 89.1 µM [inhibitor, single point]",
O=C(c1nc(-c2cccnc2)c2ccccn12)N1CCN(c2ncccn2)CC1,,"inconclusive: 89.1 µM [inhibitor, single point]",
CC(C)CC(=O)NC1CCCc2c1[nH]c1c(Cl)cccc21 (stereo not given),,"inconclusive: 44.7 µM [inhibitor, partial curve]",
COc1ccc(OC)c(NC(=O)Cn2cccc2-c2nc(-c3ccc4c(c3)OCO4)no2)c1,,active: 35.5 µM,
Fc1ccccc1-c1nnc([C@H]2CCN(Cc3cccc(OC(F)(F)F)c3)C2)o1,,active: 112 µM,
Cc1ccc(NC(=O)N2CCCCCCNC(=O)[C@@H]3CCCC[C@@H]32)cc1C,inactive: 2.66%,,
CCOC(=O)N1CCC(COc2ccc3c(cnn3CC[S+](C)(=O)[O-])c2)CC1,,"inconclusive: 70.8 µM [inhibitor, partial curve]",
COc1ccc(CC(=O)N2CCc3nc(C(C)C)nc(-c4ccc(O)cc4)c3CC2)cc1,inactive: -24.3%,,
O=C(c1ccco1)N1CCc2nc3cc(-c4ccccc4Cl)[nH]n3c(=O)c2C1,,"inconclusive: 89.1 µM [inhibitor, single point]",
CC1=C[C@@H](CNS(=O)(=O)c2cccc(C#N)c2)[C@H](C(C)C)C[C@H]1CC(=O)Nc1ccccn1,,"inconclusive: 35.5 µM [inhibitor, full curve]",
OCc1ccc(CN2C[C@H](O)C[C@H]2c2nc(-c3ccc4c(c3)OCO4)no2)o1,inactive: -16.3% [at 172 µM],,
O=C(c1cccc(-c2ccccn2)c1)N1CCN([S+](=O)([O-])c2ccccc2)CC1,,"inconclusive: 50.1 µM [inhibitor, partial curve, poor fit]",
O=C(NC1CCN(c2ccnc3ccnn23)CC1)c1ccc(Cl)cc1,,active: 44.7 µM,
COc1ccc(-c2cn3c(n2)CO[C@@H](CNC2CCOCC2)C3)cc1,inactive: -7.05% [at 172 µM],,
O=C(c1ccncc1)N1CC2CCC(C1)N2Cc1ccc(-c2ccsc2)cc1,,"inconclusive: 10 µM [inhibitor, full curve, poor fit] and inconclusive: 8.91 µM [inhibitor, full curve, poor fit]",
O=C(O)CCn1ncc2cc(OCC3CCN(C(=O)COc4ccccc4)CC3)ccc21,inactive: 3.51% [at 172 µM],,
COc1ccc(C2=NOC3(CCCN(C(=O)c4ccc(C(F)(F)F)cc4)C3)C2)cc1 (stereo not given),,"inconclusive: 89.1 µM [inhibitor, partial curve, poor fit]",
CN1CCCCCC(O)c2cc(C(=O)N3CCOCC3)ccc21 (stereo not given),inactive: -29%,,
O=C(O)C[C@@H]1CCN(C(=O)COc2ccccc2)C[C@@H]1CCN1CCN(c2cccc(C(F)(F)F)c2)CC1,,,inactive
COCCn1cnc2ccc(-c3ccc4c(c3)OCO4)nc2c1=O,inactive: -3.91% [at 172 µM],,
C[S+](=O)([O-])c1ccc(-c2nnc3ccc(C(=O)NC4CCCCC4)cn23)cc1,inactive: -11.8%,,

SMILES,"activity change, negative = cytotoxicity",Potency,outcome
CCOc1ccccc1CN1CCN(c2ncccc2C#N)CC1CCO (stereo not given),,"inconclusive: 44.7 µM [inhibitor, partial curve, poor fit]",
COc1ccc(Cn2c(C3CCN(C(=O)Cc4ccc(Cl)cc4)CC3)n[nH]c2=O)cc1,,"inconclusive: 89.1 µM [inhibitor, single point]",
O=C(c1ccc(Cl)nc1)N1CCCC(C(=O)N2CCC(N3Cc4cccn4C3=O)CC2)C1 (stereo not given),,,inactive
CC1CCCC2(C1)OCC(C(=O)NCc1ccccc1)N2C(=O)c1ccccc1F (stereo not given),,"inconclusive: 63.1 µM [inhibitor, partial curve, poor fit]",
O=C(C1CCCCC1)N1CC[C@](O)(c2ccccc2)[C@H](N2CCCC2)C1,,"inconclusive: 56.2 µM [inhibitor, partial curve, poor fit]",
Cc1ccccc1CNC(=O)CCC[C@H]1NC[C@@H]2C[C@H]1CN(Cc1ccccc1)C2,,"inconclusive: 56.2 µM [inhibitor, partial curve, poor fit]",
CC(C)C[C@@H]1N[C@H](C(=O)NCc2cccs2)Cc2c[nH]c3cccc1c23,,active: 39.8 µM,
CCCNC(=O)C1COC2(CCN(C(=O)c3cccc(C)c3)CC2)N1C(=O)c1ccc(OC)cc1 (stereo not given),,,inactive
CCCn1cc(-c2ccncc2)cc1C(=O)N1CCN(c2ccccn2)CC1,,"inconclusive: 44.7 µM [inhibitor, partial curve, poor fit]",
COCc1ncc(C)n1CC1CCN(C(=O)CCc2ccc(OC)cc2)CC1,inactive: -28.2%,,
O=C1COc2ccc(OCc3cccnc3)nc2CN1Cc1ccccc1F,,active: 89.1 µM,
O=c1[nH]c(N2CCOCC2)nc2c1CCN(Cc1ccccc1Br)CC2,inactive: -5.33%,,
COc1cccc(C2C(C(=O)OC(C)C)=C(C)N=C3SC=C(CC(=O)N4CCCC4)N32)c1OC (stereo not given),,"inconclusive: 31.6 µM [inhibitor, partial curve]",
CC(C)CCCC(=O)N1CCC2(CC1)Nc1ccccc1NC2=O,,"inconclusive: 56.2 µM [inhibitor, partial curve, poor fit]",
COc1ccc(C(=O)N2CCC3(CC2)CC(N(Cc2ccccc2)C2CC2)CCO3)cn1 (stereo not given),,"inconclusive: 56.2 µM [inhibitor, partial curve, poor fit]",
COCCOc1cc(C)c2c(c1C)C[C@H]([C@H](C)C(=O)Nc1ccccn1)CC2,,"inconclusive: 79.4 µM [inhibitor, partial curve]",
O=C(NCCC1CCN(C(=O)Nc2cccc(F)c2)CC1)c1ccccc1F,,"inconclusive: 56.2 µM [inhibitor, partial curve, poor fit]",
Cc1cc2c(NC3CC(c4nnc(CN(C)C)n4C)C3)ncnc2s1 (stereo not given),,"inconclusive: 39.8 µM [inhibitor, partial curve]",
O=C(Cc1ccc(F)cc1)N1CCCC(C(=O)N2CCC(N3CCOCC3=O)CC2)C1 (stereo not given),inactive: -6.52%,,
Cc1cc(C)cc(Nc2nc(-c3ccccc3F)no2)c1,,active: 39.8 µM,
Cc1ccc(C(=O)N2CCC3(CC2)CC(c2cccnc2)=NO3)cc1,,"inconclusive: 89.1 µM [inhibitor, partial curve, poor fit] and inconclusive: 100 µM [inhibitor, partial curve, poor fit]",
